Source: the supplement of paper PMC10126150
Sequences with one replicate were seen in a single cluster, so their values are uncertain.

Tested on: ATP
Assay: switch fluorescence ratio, 500 uM ATP over buffer (Cy3 cluster intensity, sum of 5 cycles each) (fold (ratio)); higher = stronger signal-on switching upon ATP binding; sequences stand for … in TCGTCGGCAGCGTCAGATGTGTATAAGAGACAGTTTTTTTTTTTTTTTTTTTTTTTTT…TC
Details: aptamer strand: ATP DNA aptamer (quencher-CACCTGGGGGAGTATTGCGGAGGAAGG + anchor), 100 nM annealed; ATP concentration: 500 uM; one replicate
How it was run: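 Switching-strand clusters labelled with Cy3 on a modified Illumina MiSeq flow-cell were annealed to 100 nM quencher-labelled ATP aptamer, imaged in selection buffer, and re-imaged after 15 min with 500 uM ATP at 22 °C. This was done over five cycles with NaOH stripping and re-annealing in between. The fluorescence ratio is summed target-cycle over summed buffer-cycle Cy3 intensity per cluster, averaged per switch-domain sequence, excluding clusters outside 100-1000 RFU.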
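Further: ATP exposure 15 min at 22 °C before imaging.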

Sequence	switch fluorescence ratio
CCCACTAATA	1.05
GGTTATTTCA	1.21
AAACATGGGG	1.01
GTTCTGAACG	1.06
GAAGTGACAT	1.01
ACAGCCCTTA	1.05
TTATCCTTGA	0.993
ATATGGGTAA	0.982
TGACAGAATT	1.05
AACTTGATA	1.02
CGGGGCCCTA	1.03
TACACTAGTC	0.94
ACATCTTGGT	1.02
CAGGAGGTAC	1.11
CGCTCGGGGA	1.03
CAGTCAAACC	1.05
GGAAACCACT	1.03
GCAGCGTAG	1
CGGTAGCGAC	1.69
ATACTGCCCA	1.3
TTCTGGGACG	1.11
AGTAGTTGAG	0.982
CAGAGAACCA	0.997

Sequence	switch fluorescence ratio
GGTTTGTAGC	1.03
CTAAGTACC	1.27
GGATTATCAT	0.961
ATTTGTGGGC	1.05
TGCTCCAAGA	3
GTAACGCGGT	1.04
AGTGCAATT	1.04
ACGGGTGTA	1.02
TGTGCTGAGT	0.985
TTTTGGTA	0.988
AGCGAGCTT	1.04
AGAATCCATT	0.967
TCTAAGTATA	0.972
GCGAGCATTC	1.17
TTGGTCCCGT	0.963
TGTAGCTGT	1.01
TTTAGATCTC	0.945
GAGCTAGTCG	0.921
TCCGGGGGT	1.09
GGTATGGGGC	1.03
TAATGAATCC	1
ATGGGCGGGA	0.998
AATTGTCAGC	0.976

Sequence	switch fluorescence ratio
TATGAGCCGG	0.958
TCTGTTAACT	0.961
GGTACTATAC	1.41
TTTCCGGCCC	1.11
CACATTAGTG	0.989
TTCTGCAATG	4.55
CGGGTACGCG	0.928
CGTTTACGGC	0.985
TAGGAGCTGC	1.23
AGACTTCGCC	1.07
TGGGTAGGGC	0.979
TTTCGTGGCG	0.945
CATCTGCGGT	2.89
TAGTGGACTG	0.975
ATGACTCTTA	0.943
CTTGAGGGTG	1.13
GCTATGGTGT	0.987
GCATTACCGT	1.08
ACCTGTCGGA	1.04
TCAGCCGGCC	0.985
CTTAGCACGT	1.01
GAATTATGTG	1.01
TCGTGGGCGT	0.98

Sequence	switch fluorescence ratio
AATGCTCTGA	1.03
TCAAACTCAG	1.02
GGTTTGGCCT	1.01
GCTTCGATTC	1.05
CGTAAGTTCA	1.08
AGGTAGACAA	1.03
TCTTCCTGTG	1.29
CGAAGGAGTT	0.969
GGTCACAGGA	0.985
TGAGAAGGGC	1.03
ATATTAGTAC	1.02
GATAGGGTTG	0.998
TGTTGGGTAT	1
CTTTGGACGA	1.01
GAAGAAATGG	1.06
TTAGATTATA	0.996
TTGTGTGAAC	1
GAAAAGCCTG	1.01
TAGGCGGCAA	1.33
AACGTCTATG	0.946
TAGAAAATTC	1.07
TGTAGCGA	1.84
TCTTCGTGGC	1.17

Sequence	switch fluorescence ratio
TATGGTCAA	1.03
ACCACAGGCG	2.37
CAATGATCGT	1.03
TGCGATGGTG	1.02
AACGAGCAGC	1.04
TGATTTTCAG	0.935
AGAACTTATT	1
ACCACGTGAT	1.08
GGAGTGATG	1.05
TTAGCTCAGC	0.983
ACGAGGTGTA	1.07
AGATTTTTCT	0.926
TCTAGCTCA	1.01
GGAAATCAAT	0.966
TTGAGGGTTA	0.963
TAAAGTTGA	0.989
GCCGAAGGTT	1
CTCTTAGTAA	1.09
GGATAATCTC	0.999
CGCGCCCCTC	1.11
TATAAAATAC	1.38
CTTTAAGGAG	1.01
TAGGACCGGA	0.985

Sequence	switch fluorescence ratio
TATCTACCGG	0.98
TAGGTATAA	0.99
ACCTGTGGGT	0.968
AGAATTTAC	1.08
AACAGCAGCA	1.02
ACAATTTAGA	1.01
TGTTACGCCA	1.17
CGGGAACAGC	0.986
ACGATGCTTT	1.12
TCAATGCATA	1.08
CCACTAAAAA	1.02
GAACTATTGA	1.01
TAGGTTGGGC	0.968
GGTCCGTGCG	0.995
CATACTTGTA	0.982
GAAGTGCTCC	1.21
CTTGGTAGTC	0.974
AGTAAGTTAG	1.05
CAGGTAGTTT	1.01
CAAACCGGTG	1.07
ACCAAAGTTT	0.977
ATAATACCGT	1.01
TAACAAGGTT	0.979

Sequence	switch fluorescence ratio
TAAAAAGGTC	0.959
ATAGTGAATG	1.02
AGCATGGAAC	1.13
CCTGGGATGG	0.997
TCGACGTGC	1.68
GGGAGAGTAC	0.98
ACTCGGCCTT	1.08
CAAGATGTCG	0.996
ATCTTTGAAT	1
GAAACAGGGC	1.01
GCAAATCAC	1.15
AGCGAAGTCC	1.02
GGGGTCTAAG	0.957
GATTCACTGG	0.998
TCAGCGTTTT	0.977
GCAGCACTCG	1.31
CGCGCACTAG	1.53
CAGGGGCTA	1.04
GCTGTGCCTC	0.989
